{"source": "paper PMC4336329", "about": "(PLoS ONE, 2015)", "note": "Hit rate of the full screen: of about 310,000 compounds, about 14,000 (4.5%) showed an effect of 50% or more. Effects have a minus sign here. The list shows a part of the results.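 Also: peak tail current of the secondary pulse compared with the same well before compound.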", "data": [{"molecular_target": "human ether-à-go-go-related gene (hERG) potassium channel (human, UniProt Q12809)", "sequence (Q12809 whole entry, looked up)": "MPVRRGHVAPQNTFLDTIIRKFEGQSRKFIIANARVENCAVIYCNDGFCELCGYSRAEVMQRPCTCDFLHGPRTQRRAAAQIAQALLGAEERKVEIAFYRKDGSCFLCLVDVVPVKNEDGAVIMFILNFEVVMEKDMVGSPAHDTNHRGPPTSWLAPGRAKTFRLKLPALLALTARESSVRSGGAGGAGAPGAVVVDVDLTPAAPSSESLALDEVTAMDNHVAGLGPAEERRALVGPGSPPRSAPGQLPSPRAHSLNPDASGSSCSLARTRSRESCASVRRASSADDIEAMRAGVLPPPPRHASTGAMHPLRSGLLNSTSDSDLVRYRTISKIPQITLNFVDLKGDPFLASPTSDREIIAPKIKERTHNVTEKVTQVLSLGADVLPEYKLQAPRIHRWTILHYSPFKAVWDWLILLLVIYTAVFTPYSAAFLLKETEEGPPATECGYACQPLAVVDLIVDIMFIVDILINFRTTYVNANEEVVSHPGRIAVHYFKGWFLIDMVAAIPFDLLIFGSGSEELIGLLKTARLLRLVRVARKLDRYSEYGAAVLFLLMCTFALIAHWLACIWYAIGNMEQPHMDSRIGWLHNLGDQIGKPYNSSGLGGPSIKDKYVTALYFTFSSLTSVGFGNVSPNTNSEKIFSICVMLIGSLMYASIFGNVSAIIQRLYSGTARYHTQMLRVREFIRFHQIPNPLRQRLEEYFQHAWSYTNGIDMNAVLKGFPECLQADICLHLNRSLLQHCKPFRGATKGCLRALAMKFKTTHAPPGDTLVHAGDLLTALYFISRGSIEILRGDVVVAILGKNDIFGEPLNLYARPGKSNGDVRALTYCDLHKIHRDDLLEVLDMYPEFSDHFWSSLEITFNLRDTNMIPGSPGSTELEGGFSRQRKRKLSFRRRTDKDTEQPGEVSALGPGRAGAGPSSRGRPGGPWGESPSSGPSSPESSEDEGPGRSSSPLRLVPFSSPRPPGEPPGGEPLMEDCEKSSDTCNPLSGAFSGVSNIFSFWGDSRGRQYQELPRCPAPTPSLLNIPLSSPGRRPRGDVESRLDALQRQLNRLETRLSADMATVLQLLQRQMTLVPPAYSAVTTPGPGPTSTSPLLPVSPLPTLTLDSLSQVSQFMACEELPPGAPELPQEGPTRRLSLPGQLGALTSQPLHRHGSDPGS", "assay": "primary screen, population patch clamp on CHO cells stably expressing hERG", "units": {"hERG current change (%, negative = inhibition) at 10uM": "%"}, "values": [{"smiles": "CCOC(=O)c1c(C(=O)OCC)c(C)n(Cc2cc(OC)c(OC)c(OC)c2)c1C", "hERG current change (%, negative = inhibition) at 10uM": 16.9}, {"smiles": "COc1cc(NC(=O)C2Cc3ccccc3CN2S(C)(=O)=O)cc(OC)c1", "note": "(stereo not shown)", "hERG current change (%, negative = inhibition) at 10uM": 10.9}, {"smiles": "CCOC(=O)N1CCN(C(=O)CCCOc2ccccc2)CC1", "hERG current change (%, negative = inhibition) at 10uM": -0.00622}, {"smiles": "CCN(C(=O)COC(=O)c1ccccc1Cc1ccccc1)C1CCS(=O)(=O)C1", "note": "(stereo not shown)", "hERG current change (%, negative = inhibition) at 10uM": -27.6}, {"smiles": "CCOC(=O)C(NC(=O)CC)(Nc1nc2c(s1)CCCC2)C(F)(F)F", "note": "(stereo not shown)", "hERG current change (%, negative = inhibition) at 10uM": 0.445}, {"smiles": "CCOC(=O)c1c(C)[nH]c(C)c1S(=O)(=O)N(C)CC(=O)Nc1ccccc1C", "hERG current change (%, negative = inhibition) at 10uM": 14.4}, {"smiles": "Cc1ccc(-n2cccn2)c([C@@H]2C[C@H]3CN(C)C(=O)[C@]34CCCN24)c1", "hERG current change (%, negative = inhibition) at 10uM": -61.1}, {"smiles": "CC(=O)c1cccc(NC(=O)CN(C)S(=O)(=O)c2ccc3c(c2)CCC(=O)N3)c1", "hERG current change (%, negative = inhibition) at 10uM": -5.16}, {"smiles": "O=C(COC(=O)c1ccc(S(=O)(=O)N2CCCC2)cc1)Nc1cccc(F)c1", "hERG current change (%, negative = inhibition) at 10uM": 8.69}, {"smiles": "CCCCC(=O)Nc1ccc2oc(-c3cccnc3)nc2c1", "hERG current change (%, negative = inhibition) at 10uM": -10}, {"smiles": "O=C(Nc1ccccc1)C1=C[C@H](c2ccc(C(F)(F)F)cc2)C[C@H](OCc2ccc(CO)cc2)O1", "hERG current change (%, negative = inhibition) at 10uM": 5.62}, {"smiles": "Cc1cc(C)c(C(N)=O)c(NC(=O)Nc2ccccc2Cl)n1", "hERG current change (%, negative = inhibition) at 10uM": -7.07}, {"smiles": "CCCCC(NC(=O)c1ccc(Cl)cc1)C(=O)O", "note": "(stereo not shown)", "hERG current change (%, negative = inhibition) at 10uM": 8.48}, {"smiles": "O=C(CCCN1C(=O)CSc2ncccc21)N1CCN(Cc2ccccc2)CC1", "hERG current change (%, negative = inhibition) at 10uM": 6.42}, {"smiles": "CCOCCCn1c(=S)[nH]c2cc3c(cc2c1=O)OCO3", "hERG current change (%, negative = inhibition) at 10uM": 11.6}, {"smiles": "CC(NC(=O)COC(=O)CNS(=O)(=O)/C=C/c1ccccc1)c1ccccc1", "note": "(stereo not shown)", "hERG current change (%, negative = inhibition) at 10uM": -7.78}, {"smiles": "CN(C)c1ccc(-c2nc3ccccc3n2C)cc1", "hERG current change (%, negative = inhibition) at 10uM": -49.9}, {"smiles": "Cc1ccc(C)c(S(=O)(=O)NC(C)C(=O)Nc2ccc(-c3nc4ccccc4s3)cc2)c1", "note": "(stereo not shown)", "hERG current change (%, negative = inhibition) at 10uM": 2.9}, {"smiles": "Cn1c(N)nc2ccccc2c1=O", "hERG current change (%, negative = inhibition) at 10uM": 1.16}, {"smiles": "COc1cc([N+](=O)[O-])ccc1NC(=S)NNC(=O)CCC(=O)Nc1ccccc1Cl", "hERG current change (%, negative = inhibition) at 10uM": -7.41}, {"smiles": "COc1ccc(NC(=O)Nc2ccc(C)cc2Br)c(OC)c1", "hERG current change (%, negative = inhibition) at 10uM": 27.4}, {"smiles": "CC(C(=O)NC1CCCC1)N1CCN(S(=O)(=O)c2ccc(C(C)(C)C)cc2)CC1", "note": "(stereo not shown)", "hERG current change (%, negative = inhibition) at 10uM": -19.8}, {"smiles": "Cc1c(Cl)ccc2c1NC(=O)[C@]21N[C@@H](CCC(N)=O)[C@H]2C(=O)N(c3ccc(F)cc3)C(=O)[C@H]21", "hERG current change (%, negative = inhibition) at 10uM": 4.75}, {"smiles": "COc1ccc(-c2[nH]nc3c2C(c2ccc(OC(=O)N4CCOCC4)cc2)C(C#N)=C(N)O3)cc1", "note": "(stereo not shown)", "hERG current change (%, negative = inhibition) at 10uM": -3.71}, {"smiles": "Clc1ccc(-c2nnc3cccc(Cl)n23)c(Cl)c1", "hERG current change (%, negative = inhibition) at 10uM": -2.44}, {"smiles": "COc1cccc(N(CC(=O)N2CCN(C)CC2)S(=O)(=O)c2ccc(C)cc2)c1", "hERG current change (%, negative = inhibition) at 10uM": -26.5}, {"smiles": "CCOC(=O)N1CCN(C(=O)/C=C/c2ccc3c(c2)OCO3)CC1", "hERG current change (%, negative = inhibition) at 10uM": -1.52}, {"smiles": "O=C(NC(=S)Nc1ccc(S(=O)(=O)Nc2ccccc2)cc1)C1CC1", "hERG current change (%, negative = inhibition) at 10uM": 14}, {"smiles": "Cn1c(-c2cc3ccc(OC(=O)C(C)(C)C)cc3oc2=O)nc2ccccc21", "hERG current change (%, negative = inhibition) at 10uM": -0.599}, {"smiles": "CCCCOc1nc(N2CCOCC2)nc(C)c1[N+](=O)[O-]", "hERG current change (%, negative = inhibition) at 10uM": 0.42}, {"smiles": "COc1ccc(-c2nnc(SCC(=O)NCC3CCCO3)o2)cc1", "note": "(stereo not shown)", "hERG current change (%, negative = inhibition) at 10uM": 23.4}, {"smiles": "O=C(NC1CCCCC1)C(c1cccs1)N(Cc1cccs1)C(=O)c1ccco1", "note": "(stereo not shown)", "hERG current change (%, negative = inhibition) at 10uM": -12.5}, {"smiles": "COC(=O)c1ccc(CSc2ccccc2C)o1", "hERG current change (%, negative = inhibition) at 10uM": 7.92}, {"smiles": "CCOC(=O)N1CCC(=NNS(=O)(=O)c2cccc([N+](=O)[O-])c2)CC1", "hERG current change (%, negative = inhibition) at 10uM": 2.61}, {"smiles": "COc1ccc(C2(CCN=Cc3ccc(N(C)C)cc3)CCOC(C)(C)C2)cc1", "note": "(stereo not shown)", "hERG current change (%, negative = inhibition) at 10uM": -2.1}, {"smiles": "O=C(NCc1cccnc1)c1ccc2c(c1)C(=O)N(Cc1ccccc1)C2=O", "hERG current change (%, negative = inhibition) at 10uM": -20.6}, {"smiles": "O=C(Nc1ccc(CN2CCOCC2)cc1)c1ccc(Br)o1", "hERG current change (%, negative = inhibition) at 10uM": 1.56}, {"smiles": "CN(C)CCCN(C(=O)C1COc2ccccc2O1)c1nc2ccc(F)cc2s1.Cl", "note": "(stereo not shown)", "hERG current change (%, negative = inhibition) at 10uM": -75.4}, {"smiles": "Cc1cc(SCC(=O)c2ccc3c(c2)OCO3)nc2ccccc12", "hERG current change (%, negative = inhibition) at 10uM": -6.85}, {"smiles": "CN(CC(=O)Nc1ccc(F)c(F)c1F)c1ncnc2sccc12", "hERG current change (%, negative = inhibition) at 10uM": -1.44}, {"smiles": "CCCn1c(C(C)C)n[nH]c1=S", "hERG current change (%, negative = inhibition) at 10uM": 15.6}, {"smiles": "Fc1cccc(NCc2cn3ccccc3n2)c1", "hERG current change (%, negative = inhibition) at 10uM": -17.6}, {"smiles": "CCOC(=O)N1CCN(C(=O)c2ccc3c(=O)n(Cc4ccccc4OC)c(=S)[nH]c3c2)CC1", "hERG current change (%, negative = inhibition) at 10uM": -33.7}, {"smiles": "CCOC(=O)C1=C(N)OC2=C(C(=O)CCC2)C12C(=O)N(CC(N)=O)c1ccccc12", "note": "(stereo not shown)", "hERG current change (%, negative = inhibition) at 10uM": 3.15}, {"smiles": "O=C(O)c1ccc(S(=O)(=O)c2ccc3c(c2)C(=O)N(c2ccc(Br)cc2)C3=O)cc1", "hERG current change (%, negative = inhibition) at 10uM": 9.12}, {"smiles": "CCC1(C)Cc2c(sc3c2c(=O)n(C)c2nnc(SCc4ccc5c(c4)OCO5)n32)CO1", "note": "(stereo not shown)", "hERG current change (%, negative = inhibition) at 10uM": -15.7}, {"smiles": "COc1ccc(CCC(=O)N2CCN(S(=O)(=O)c3ccc(C)cc3)CC2)cc1", "hERG current change (%, negative = inhibition) at 10uM": -29}, {"smiles": "O=C(COC(=O)CCC(=O)c1ccc(F)cc1)Nc1cccc(S(=O)(=O)N2CCOCC2)c1", "hERG current change (%, negative = inhibition) at 10uM": -41.6}, {"smiles": "COc1ccc(NC(=O)CSc2ccc(-c3cccnc3)nn2)c(OC)c1", "hERG current change (%, negative = inhibition) at 10uM": -11.2}, {"smiles": "Cc1ccc(S(=O)(=O)NCCC(=O)N2CCCCCCC2)cc1", "hERG current change (%, negative = inhibition) at 10uM": 10.5}, {"smiles": "COc1ccc(Nc2ncnc3ccc(Br)cc23)c(OC)c1", "hERG current change (%, negative = inhibition) at 10uM": -7.88}, {"smiles": "Cc1ccc(NC(=O)CC(C)CC2=NS(=O)(=O)c3ccccc3N2)cc1", "note": "(stereo not shown)", "hERG current change (%, negative = inhibition) at 10uM": 10}, {"smiles": "COc1cc(C(=O)Oc2cccc(C=O)c2)cc(OC)c1OC", "hERG current change (%, negative = inhibition) at 10uM": -1.22}, {"smiles": "O=C(Cn1[nH]c(=O)c2ccccc2c1=O)OCC(=O)c1ccccc1Cl", "hERG current change (%, negative = inhibition) at 10uM": -0.463}, {"smiles": "CC1CC(C)CN(C(=O)CN(C)S(=O)(=O)c2ccc3c(c2)c(=O)n(C)c(=O)n3C)C1", "note": "(stereo not shown)", "hERG current change (%, negative = inhibition) at 10uM": 4.09}]}]}
